# Assay results taken from patent US20250276070A1.
# B1: T-01 MB.v2 IgG1 WT (protein)
# chain 1: DFVLTQSPHSLSVTPGESASISCKSSHSLIHGDRNNYLAWYVQKPGRSPQLLIYLASSRASGVPDRFSGSGSDKDFTLKISRVETEDVGTYYCMQGRESPWTFGQGTKVDIKRTVAAPSVFIFPPSDEQLKSGTASVVCLLNNFYPREAKVQWKVDNALQSGNSQESVTEQDSKDSTYSLSSTLTLSKADYEKHKVYACEVTHQGLSSPVTKSFNRGECGGGGSGGGGSGGGGSGGGGSGGGGSGGGGSGGGGSGGGGSGGGGSGGGGSGGGGSGGGGSGGGGSGGGGSQAQLVQSGPEVRKPGTSVKVSCKAPGNTLKTYDLHWVRSVPGQGLQWMGWISHEGDKKVIVERFKAKVTIDWDRSTNTAYLQLSGLTSGDTAVYYCAKGSKHRLRDYALYDDDGALNWAVDVDYLSNLEFWGQGTAVTVSSASTKGPSVFPLAPSSKSTSGGTAALGCLVKDYFPEPVTVSWNSGALTSGVHTFPAVLQSSGLYSLSSVVTVPSSSLGTQTYICNVNHKPSNTKVDKKVEPKSCDGGGGSGGGGSGGGGSGGGGSGGGGSG[about 200 residues not printed]
# chain 2: QSALTQPRSVSASPGQSVTISCTGTHNLVSWCQHQPGRAPKLLIYDFNKRPSGVPDRFSGSGSGGTASLTITGLQDDDDAEYFCWAYEAFGGGTKLTVLGQPKAAPSVTLFPPSSEELQANKATLVCLISDFYPGAVTVAWKADSSPVKAGVETTTPSKQSNNKYAASSYLSLTPEQWKSHRSYSCQVTHEGSTVEKTVAPTECGGGGSGGGGSGGGGSGGGGSGGGGSGGGGSGGGGSGGGGSGGGGSGGGGSGGGGSGGGGSGGGGSGGGGSADLVQSGAVVKKPGDSVRISCEAQGYRFPDYIIHWIRRAPGQGPEWMGWMNPMGGQVNIPWKFQGRVSMTRDTSIETAFLDLRGLKSDDTAVYYCVRDRSNGSGKRFESSNWFLDLWGRGTAVTIQSASTKGPSVFPLAPSSKSTSGGTAALGCLVKDYFPEPVTVSWNSGALTSGVHTFPAVLQSSGLYSLSSVVTVPSSSLGTQTYICNVNHKPSNTKVDKKVEPKSCGGGGSGGGGSGGGGSGGGGSGGGGSGGSSQIRQNYSTDVEAAVNSLVNLYLQASYTYLSLGFYFDRDDVALEGVSHFFRELAEEKREGYERLLKMQNQRGGRALFQDIKKPAEDEW
# chain 3: SELTQDPAVSVALKQTVTITCRGDSLRSHYASWYQKKPGQAPVLLFYGKNNRPSGIPDRFSGSASGNRASLTITGAQAEDEADYYCSSRDKSGSRLSVFGGGTKLTVLSQPKAAPSVTLFPPSSEELQANKATLVCLISDFYPGAVTVAWKADSSPVKAGVETTTPSKQSNNKYAASSYLSLTPEQWKSHRSYSCQVTHEGSTVEKTVAPTECGGGGSGGGGSGGGGSGGGGSGGGGSGGGGSGGGGSGGGGSGGGGSGGGGSGGGGSGGGGSGGGGSGGGGSEVRLVESGGGLVKPGGSLRLSCSASGFDFDNAWMTWVRQPPGKGLEWVGRITGPGEGWSVDYAESVKGRFTISRDNTKNTLYLEMNNVRTEDTGYYFCARTGKYYDFWSGYPPGEEYFQDWGQGTLVIVSSASTKGPSVFPLAPSSKSTSGGTAALGCLVKDYFPEPVTVSWNSGALTSGVHTFPAVLQSSGLYSLSSVVTVPSSSLGTQTYICNVNHKPSNTKVDKKVEPKSCGGGGSGGGGSGGGGSGGGGSGGGGSGGGGKTPDAMKAAMALEKKLNQALLDLHALGSARTDPHLCDFLETHFLDEEVKLIKKMGDHLTNLHRLGGPEAGLGEYLFERLTLRHDGGSGGSGGSGGSGGGSGGSGGSGGSG[human IgG1 Fc not printed]
# Experiments:
# [1] = biological target: His-tagged MPER peptide (HIV-1); assay: BLI, His-tagged target on Ni-NTA
# [2] = biological target: gp120 subunit 93TH057 (HIV-1); assay: BLI, His-tagged target on Ni-NTA
binder,measurement,setting,value
B1,Kd,[1],< 1 pM
same,koff,[1],< 1e-07 s⁻¹
same,kon,[1],183000 M⁻¹ s⁻¹
same,Kd,[2],< 1 pM
same,koff,[2],< 1e-07 s⁻¹
same,kon,[2],613000 M⁻¹ s⁻¹
